Laboratory results published in PubChem BioAssay AID1347416 (National Center for Advancing Translational Sciences (NCATS), 2020).
Out of some 4,100 compounds screened, about 1,600 (39%) were called active. Inconclusive means that the source gave no clear call. Such entries were picked first, then a sample of the others. Calls come from the whole dose curve; as a rule, active = well fitted inhibition curve with a large enough effect; inconclusive = small, poorly fitted or top-dose-only effect; inactive = no such curve, though single readings can be large or run the other way. Potencies of inconclusive entries are doubtful fits and often do not repeat.

Experiment: qHTS Validation assay for Inhibitors of Plasmodium falciparum Dd2 growth in vitro; note: nearly all actives have a fitted effect of over 70% in size
Conditions: P. falciparum Dd2 in RBCs, SYBR Green growth, 72 h; series mostly up to 28.7 µM
In short: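 P. falciparum Dd2-infected red blood cells (2.5% hematocrit, 0.3% parasitemia) grown 72 h at 37 °C under 5% O2 with compounds in a titration, 29 uM to 0.5 nM final. Growth read as SYBR Green-1 fluorescence after ~16 h lysis; artesunate 300 nM as positive control.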
Potency is the fitted concentration of half-maximal effect; tags give direction and shape of the fitted curve.

Potency, inconclusive:
COc1ccc(-c2noc(-c3cccn3CC(=O)Nc3ccc(C)cc3Cl)n2)cc1F 2.37 µM [inhibitor, full curve, poor fit]
CCc1ccc(C(=O)N2CCCC(c3noc(-c4cc5c(=O)[nH]c(C)cn5n4)n3)C2)cc1 (configuration not stated) 21.1 µM [inhibitor, single point]
O=C(Nc1cccc(F)c1)Nc1ccc2n(c1=O)C[C@H]1C[C@@H]2CN(C(=O)c2ccc(F)cc2)C1 21.1 µM [inhibitor, single point]
O=C(Nc1ccc(N2CCOCC2)c(Cl)c1)c1ncn[nH]1 9.44 µM [inhibitor, partial curve]
CC(C)NC(=O)c1nc(-c2cccc(C(F)(F)F)c2)c2cnccn12 13.3 µM [inhibitor, partial curve, poor fit]
Cc1ccc(C)c(NC(=S)c2ccccn2)c1 21.1 µM [inhibitor, single point]
CCN(CC)c1ccc(NC(=O)c2ccco2)cc1 16.8 µM [inhibitor, single point]
CCOC(=O)c1ccc(-c2c(-c3ccccc3OC)sc3cc4c(cc23)OCO4)cc1F 21.1 µM [inhibitor, single point]
CCOC(=O)c1cc2c(=O)n3ccccc3nc2n(CC(C)C)c1=NC(=O)COc1ccc(Cl)cc1 10.6 µM [inhibitor, partial curve]
CCOc1ccccc1NC(=O)Cn1ccn2nc(-c3ccccc3)c(CO)c2c1=O 15 µM [inhibitor, single point]
O=C(c1ccncc1)N1CC(Oc2ccccc2-c2nc(-c3cnccn3)no2)C1 23.7 µM [inhibitor, single point]
CN1CCCC1CCNS(=O)(=O)c1ccc(Br)cc1 (configuration not stated) 5.96 µM [inhibitor, full curve]
CCCN(CCC)C(=O)Cn1ccc(=N)c2ccccc21 16.8 µM [inhibitor, single point]
COc1ncccc1-c1nccn2c(C3CN(C(=O)c4cc5ccccc5[nH]4)C3)ncc12 34.4 µM [inhibitor, single point]
Cc1noc(C)c1-c1cc2c(cc(C)n2C)c(N2CCN(c3ccccn3)CC2)n1 24.3 µM [inhibitor, single point]
O=C(Nc1ccc(Cl)cc1)N1CCC2(CC1)C(=O)NCN2Cc1ccc(Cl)cc1 4.22 µM [inhibitor, full curve, poor fit]
O=C(CC1CCCC1)N1CCCCCC1c1nnc(-c2ccccc2)o1 (configuration not stated) 21.1 µM [inhibitor, single point]
O=C1C(c2ccccc2)=[N+]([O-])c2ccccc21 1.88 µM [inhibitor, full curve]
Cc1nn2cc(-c3ccccc3)nc2[nH]c1=O 21.1 µM [inhibitor, single point]
O=c1oc2ccccc2c(N2CCCCC2)c1CN1CCCC1 9.44 µM [inhibitor, partial curve]
CCc1ccc(NC(=O)N(Cc2c[nH]c3ccccc23)C2CCCCC2)cc1 13.3 µM [inhibitor, single point]
COCCNc1c2c(c(C#N)c3nc4ccccc4n13)CCCC2 16.8 µM [inhibitor, single point]
CC1CCCN(CC(O)COCc2ccc3c(c2)OCO3)C1 (configuration not stated) 15 µM [inhibitor, single point]
CCOC(=O)c1cnn(-c2ccc(C(=O)Nc3ccc(C(C)=O)cc3)cc2)c1N 4.73 µM [inhibitor, full curve]
CCOc1ccc(CC(=O)N2CCN(c3cc(-c4ccc(OC)cc4)[nH]n3)CC2)cc1 18.8 µM [inhibitor, single point]
c1ccc(CCNc2c3c(nc4ncnn24)CCC3)cc1 21.1 µM [inhibitor, single point]
O=C(Cc1ccc(Cl)cc1)N1CCC(n2cc(-c3nc(-c4ccccc4)no3)nn2)CC1 15 µM [inhibitor, single point]
COc1ccc(-c2c[n+](CC(=O)c3cccs3)c3n2CCC3)cc1 21.1 µM [inhibitor, single point]
CCOc1ccc(Cl)cc1CN(C)CC1(O)CCCNC1 (configuration not stated) 2.99 µM [inhibitor, full curve]
COc1cccc(CN2CCOC3CCN(Cc4ccccc4O)CC3C2=O)c1 (configuration not stated) 30.6 µM [inhibitor, single point]
CCCCN(C)S(=O)(=O)c1ccc(C(=O)Nc2ccc(-c3nc4ccc(C)cc4s3)cc2)cc1 0.75 µM [inhibitor, full curve, poor fit]
CC(C)(C)CC(=O)N1CCC2(CC1)C(=O)N(CC(=O)Nc1ccc(F)cc1)CN2c1ccccc1 21.1 µM [inhibitor, single point]
CN1c2cc(C(=O)Nc3ccc(C(F)(F)F)cc3)ccc2C(=O)N2CCCCC21 (configuration not stated) 23.7 µM [inhibitor, single point]
OC[C@H]1CN(Cc2ccc(-n3ccnc3)cc2)C[C@H]1CN1CCCCC1 21.1 µM [inhibitor, single point]
CCOc1ccc(N(C)C(=O)c2oc(=O)c3ccccc3c2-c2ccccc2)cc1 10.6 µM [inhibitor, single point]
CCOC(=O)c1ccc(NC(=S)N2CCN(CCNC3=CC(=O)CC(C)(C)C3)CC2)cc1 5.96 µM [inhibitor, partial curve]
O=c1cc(O)c2sc(Nc3ccc(Cl)c(F)c3)nc2[nH]1 15 µM [inhibitor, single point]
O=C(C[n+]1cc(-c2ccccc2)n2c1CCC2)c1cccs1 7.5 µM [inhibitor, single point]
Cc1cc(O)c(-c2cc(C(=O)Nc3sc4c(c3C(=O)NCc3ccco3)CCC4)[nH]n2)cc1C 2.37 µM [inhibitor, full curve, poor fit]
CCC1=C(C(=O)OC)C(c2ccccc2OC)N2C(CC(=O)NCC3CCCO3)=CSC2=N1 (configuration not stated) 15 µM [inhibitor, partial curve]
Cc1ccc(Cl)cc1N1CCN(S(=O)(=O)c2ccc3c(c2)CC(C)N3C(=O)C2CCC2)CC1 (configuration not stated) 23.7 µM [inhibitor, single point]

Potency, inactive:
Cc1ccc(S(=O)(=O)NC[C@H]2O[C@H](Cc3cc(-c4cccc(O)c4)on3)CC[C@@H]2O)cc1
NC1CCCCN(C(=O)CCc2n[nH]c3c2CCCC3)C1 (configuration not stated)
Cc1[nH]cnc1CSCCn1ccnc1-c1nccn1C
CC(C)(C)CC(=O)Nc1ccc(S(=O)(=O)N2CCCC2)cc1
Cn1c(-n2cccc2)c(-c2c(-c3ccc(F)cc3)[nH]c3c2c(=O)n(C)c(=O)n3C)c(=O)n(C)c1=O
CCOc1cccc(CN2C[C@@H]3C(=O)N(CCN4CCc5ccccc5C4)C(=O)[C@@H]3C2)c1
COc1ccc(CN2C(=O)C(NC(=O)c3ccccc3C)(C(F)(F)F)N=C2c2ccccc2)cc1 (configuration not stated)
Cc1nc(-c2c3n(c(=O)n(Cc4ccc(OC(F)(F)F)cc4)c2=O)CCCC3)no1
CCN(CC)c1ccc(C(=O)N2CCCC(n3cc(-c4noc(C)n4)nn3)C2)cc1 (configuration not stated)
CC(C)(C)c1ccc(C(=O)N2CCC3(C2)NC(=O)N(Cc2ccc(Cl)cc2)C3=O)cc1 (configuration not stated)

Potency, active:
CCCC(O)c1nc2ccccc2n1CCCCOc1ccc(OC)cc1 (configuration not stated) 15 µM
Cc1cc(Nc2cc(Cl)cc(Cl)c2)nc(N)n1 6.68 µM
Oc1ccc(-c2nc(C3CC3)nc3c2CN(CC2CCCCC2)CC3)cc1 6.68 µM
Cc1cnc(CC2CCN(S(=O)(=O)c3ccccc3)CC2)n1Cc1ccccc1 5.31 µM
CC1(c2ccccc2)N(Cc2ccccc2F)C(=O)OC12CCN(Cc1cccc(O)c1)CC2 (configuration not stated) 6.68 µM
COCCN1Cc2ccc(NCC(C)C)nc2C(C)(C(=O)Nc2ccncc2)C1 (configuration not stated) 21.7 µM
CCN(CC)CCC(c1ccc(N(C)C)cc1)c1c(O)cc(OC)cc1OC (configuration not stated) 3.35 µM
COc1ccc(-n2c(-c3ccc(Br)cc3)c[n+]3c2CCc2ccccc2-3)cc1 4.22 µM
COc1cccc(NC(=O)Cn2cccc2-c2nc(-c3ccc(OC)c(F)c3)no2)c1 6.68 µM
COc1ccccc1N1CCN([C@H]2[C@@H]3OC[C@@H](O3)[C@@H](NCc3ccc(-c4ccccc4)cc3)[C@@H]2O)CC1 15 µM
Cc1nn(-c2ccc(C(C)C)cc2)c(C)c1[C@@H]1C=C[C@@H](NCc2ccccc2)C1 21.7 µM
CCN(CC)CCn1c(=N)n(CC(=O)c2ccc(Br)s2)c2ccccc21 5.31 µM
Cc1ccccc1OCCn1cc(C(=O)c2ccco2)c2ccccc21 5.31 µM
CCCN(CCC)c1nc(-c2ccccn2)nc2ccccc12 5.31 µM
OC(CNC1CCCCCC1)COc1cccc2ccccc12 (configuration not stated) 1.88 µM
O[C@H]1CC[C@@H](Cc2cc(COc3ccccc3)on2)O[C@@H]1CNCc1cccc(Cl)c1 2.11 µM
